In all, about 310,000 compounds went through this assay and about 14,000 (4.5%) showed an effect of 50% or more. Effects have a minus sign here. The list shows a part of the results.
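Further: peak tail current of the secondary pulse compared with the same well before compound.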

The assay deals with human ether-à-go-go-related gene (hERG) potassium channel (human, UniProt Q12809). Nature of the assay: primary screen, population patch clamp on CHO cells stably expressing hERG.
human ether-à-go-go-related gene (hERG) potassium channel, sequence (Q12809 whole entry, looked up): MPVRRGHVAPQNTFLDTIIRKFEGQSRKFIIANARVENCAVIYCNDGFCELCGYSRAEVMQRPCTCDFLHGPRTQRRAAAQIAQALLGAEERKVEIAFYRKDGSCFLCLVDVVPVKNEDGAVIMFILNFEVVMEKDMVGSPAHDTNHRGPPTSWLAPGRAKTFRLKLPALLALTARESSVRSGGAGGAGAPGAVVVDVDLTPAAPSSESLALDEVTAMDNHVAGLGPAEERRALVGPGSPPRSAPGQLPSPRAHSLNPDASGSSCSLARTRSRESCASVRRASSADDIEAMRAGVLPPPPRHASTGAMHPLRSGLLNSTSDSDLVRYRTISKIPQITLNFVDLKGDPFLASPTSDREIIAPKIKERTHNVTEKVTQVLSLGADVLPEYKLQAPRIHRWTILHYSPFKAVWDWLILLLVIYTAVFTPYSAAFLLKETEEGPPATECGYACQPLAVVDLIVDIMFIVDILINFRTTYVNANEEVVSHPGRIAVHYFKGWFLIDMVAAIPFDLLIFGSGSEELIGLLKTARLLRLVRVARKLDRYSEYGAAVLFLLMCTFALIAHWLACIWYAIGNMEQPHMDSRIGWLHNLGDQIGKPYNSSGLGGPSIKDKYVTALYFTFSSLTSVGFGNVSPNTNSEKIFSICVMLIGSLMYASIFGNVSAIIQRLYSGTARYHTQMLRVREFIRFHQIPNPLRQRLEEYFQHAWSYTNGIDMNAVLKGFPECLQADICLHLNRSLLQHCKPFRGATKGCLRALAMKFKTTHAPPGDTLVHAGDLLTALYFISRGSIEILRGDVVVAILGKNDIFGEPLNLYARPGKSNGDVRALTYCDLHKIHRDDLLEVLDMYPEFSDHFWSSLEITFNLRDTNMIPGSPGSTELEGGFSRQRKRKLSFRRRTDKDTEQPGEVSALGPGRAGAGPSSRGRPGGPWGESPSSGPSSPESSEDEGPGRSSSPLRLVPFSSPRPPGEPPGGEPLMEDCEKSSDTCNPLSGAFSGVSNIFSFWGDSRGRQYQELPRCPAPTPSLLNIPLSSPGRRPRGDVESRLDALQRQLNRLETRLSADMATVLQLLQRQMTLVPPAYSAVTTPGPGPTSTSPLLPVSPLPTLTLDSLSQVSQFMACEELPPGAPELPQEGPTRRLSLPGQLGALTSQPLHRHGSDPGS
In the case of `CC1CCCCN1CCCNc1ccc(C(CC(N)=O)NC(=O)Cc2cccc3ccccc23)cc1[N+](=O)[O-]` (centres unmarked), the “hERG current change (%, negative = inhibition) at 10uM” value is recorded as -14.6%.
Next, `CCOP(=O)(C#Cc1ccccc1)C(O)c1ccc(Br)cc1` (centres unmarked): -28.3%; `O=C(CN1CCCCCC1)Nc1ccc(Br)cn1`: -20.7%.
In the case of `Cc1cc(C)c(CNC(=O)c2cc(C3CC3)nc3c2cnn3C(C)C)c(=O)[nH]1`, the “hERG current change (%, negative = inhibition) at 10uM” value is recorded as -35.5%.
In the case of `COc1ccc([N+](=O)[O-])cc1N(CC(=O)NCc1ccco1)S(C)(=O)=O`, the “hERG current change (%, negative = inhibition) at 10uM” value amounted to 11.9%.
Take `COc1ccc(C[C@H]2CN3C(=NC[C@@H]3Cc3ccccc3)N2CCNC(=O)CCC2CCCCC2)cc1`: the “hERG current change (%, negative = inhibition) at 10uM” value is on record as -73.7%.
Take `O=C(Nc1ccc(C2CCCCC2)cc1)C1CCCN(c2ncccn2)C1` (centres unmarked): the “hERG current change (%, negative = inhibition) at 10uM” value is listed as -7.76%.
Then `C=C1CC2C=C(NC(C)=O)CC(C1)C2` (centres unmarked), with 1.9%; and `COc1ccc(C(CCNCc2ccc(OC(C)C)cc2)C(C)C)cc1` (centres unmarked), with -39%.
On to `O=C(/C=C\c1ccco1)Nc1cc([N+](=O)[O-])ccc1F`, for which the “hERG current change (%, negative = inhibition) at 10uM” value is reported as -5.06%.
Regarding `COc1ccccc1OC1OC2COC(c3ccco3)OC2C(O)C1NC(C)=O` (centres unmarked), the “hERG current change (%, negative = inhibition) at 10uM” value is recorded as -1.85%.
Then `CN(Cc1ccccc1)C(=O)COC(=O)c1ccc(=O)n(Cc2ccccc2)n1`, with -25.8%; and `N#CCCN(C(=O)COC(=O)C1CCN(c2ccc(C(F)(F)F)cn2)CC1)c1ccc(F)cc1`, with -40.5%.
In the case of `CC(=O)c1c(C)[nH]c(C(=O)Nc2cccc(C(F)(F)F)c2)c1C`, the “hERG current change (%, negative = inhibition) at 10uM” value turned out to be 14.8%.
In the case of `CC(C)CCNC(=O)c1cccnc1Sc1ccccc1`, the “hERG current change (%, negative = inhibition) at 10uM” value is 20.9%.
Then `Cc1cccc(N(CC(=O)NCc2ccc(F)cc2)C(=O)c2ccco2)c1`, with -10.6%; and `N#Cc1ccc(C(c2nnnn2C2CCCC2)N2CCC(Cc3ccccc3)CC2)cc1` (centres unmarked), with 14.3%; and `CN(C)S(=O)(=O)c1cccc(NC(=O)c2c[nH]c3ccccc23)c1`, with 19.9%.
Consider `Cc1cccc(NC(=O)[C@H](Cc2ccccc2)NC(=O)OCc2ccccc2)c1`, for which the “hERG current change (%, negative = inhibition) at 10uM” value is recorded as 6.44%.
For the molecule `COc1ccccc1NC(=O)Cn1nnc(-c2ccccc2NC(=O)c2cccs2)n1`, the “hERG current change (%, negative = inhibition) at 10uM” value is reported as 1.34%.
`N#Cc1ccc(Oc2cccc3cccnc23)c([N+](=O)[O-])c1`: the “hERG current change (%, negative = inhibition) at 10uM” value is -79.1%.
With `O=C(CN1CC=C(c2ccccc2)CC1)Nc1c(Cl)cccc1Cl`, the “hERG current change (%, negative = inhibition) at 10uM” value was 4.21%.
In the case of `O=C(NCC1CCCO1)C(=O)N/N=C/c1cccc(Cl)c1` (centres unmarked), the “hERG current change (%, negative = inhibition) at 10uM” value stood at 12.1%.
In the case of `COc1ncnc(-c2ccccc2)c1-c1ccccc1`, the “hERG current change (%, negative = inhibition) at 10uM” value is reported as 1.86%.
Take `O=C1C2C3C=CC(C4CC34)C2C(=O)N1/N=C/c1c[nH]c2ccccc12` (centres unmarked): the “hERG current change (%, negative = inhibition) at 10uM” value is 5.34%.
`Cc1cc(F)ccc1S(=O)(=O)Nc1ccccc1C(=O)N1CCCC1`: the “hERG current change (%, negative = inhibition) at 10uM” value worked out at 1.27%.
Regarding `Cc1ccc(Nc2nnc(SCC(=O)Nc3cc(C(=O)O)ccc3C)s2)c(C)c1`, the “hERG current change (%, negative = inhibition) at 10uM” value is reported as 8.1%.
As for `Cc1ccc(OCC(=O)NCCN2CCN(C(=O)COc3ccc(C)cc3)CC2)cc1`, the “hERG current change (%, negative = inhibition) at 10uM” value was -65.9%.
Next, `C=CCN1C(=O)C(Cc2ccc(Br)cc2)S/C1=N\N=C\c1ccco1` (centres unmarked): -1.85%.
Then `Cc1ccccc1-c1nc(S(=O)(=O)c2ccc(Br)cc2)c(NCc2cccnc2)o1`, with -1.91%; and `O=[N+]([O-])c1ccc(F)c(N=Cc2ccc(Br)s2)c1`, with 8.36%; and `CCN(CC)CCNC(=O)c1ccccc1N`, with -5.76%.
With `CN(CC(=O)Nc1ccccc1Cl)C(=O)CN1C(=O)NC(c2ccccc2)(c2ccccc2)C1=O`, the “hERG current change (%, negative = inhibition) at 10uM” value is -66.8%.
Take `Cc1cc(C(=O)N2CCC(CO)(Cc3cccc(C(F)(F)F)c3)CC2)n[nH]1`: the “hERG current change (%, negative = inhibition) at 10uM” value is -49.4%.
Take `CCN1CCN(CCCN(Cc2ccco2)C(=S)Nc2ccccc2Cl)CC1`: the “hERG current change (%, negative = inhibition) at 10uM” value is listed as -53.5%.
On to `CC(=O)OC[C@H]1O[C@@H](n2ncc(=O)[nH]c2=O)[C@H](OC(C)=O)[C@@H]1OC(C)=O`, for which the “hERG current change (%, negative = inhibition) at 10uM” value was 19.6%.
`COc1cc(C2C(C#N)=C(N)OC3=C2C(=O)CCC3)cc2c1OCO2` (centres unmarked): the “hERG current change (%, negative = inhibition) at 10uM” value is -6.46%.
Turning to `O=[N+]([O-])c1cc(/C=N\O)ccc1Oc1ccc(F)cc1`, the “hERG current change (%, negative = inhibition) at 10uM” value was -72.1%.
Take `CC/C(=N\N1CCCCCC1)c1c(O)n(-c2ccc(C)cc2)c(=O)[nH]c1=O`: the “hERG current change (%, negative = inhibition) at 10uM” value is given as -19%.
`COc1ccc(C)cc1NC(=O)C(Sc1nnc(-c2cccs2)o1)c1ccccc1` (centres unmarked): the “hERG current change (%, negative = inhibition) at 10uM” value is -20.4%.
For the molecule `O=c1ccc2cc3c(-c4ccccc4)coc3cc2o1`, the “hERG current change (%, negative = inhibition) at 10uM” value was 7.58%.
In the case of `O=C(NCc1ccncc1)c1cc(F)c(F)cc1Cl`, the “hERG current change (%, negative = inhibition) at 10uM” value worked out at 14.2%.
As for `O=C(CSc1nc2c(c(=O)n1-c1ccc(Br)cc1)SCC2)NCc1ccco1`, the “hERG current change (%, negative = inhibition) at 10uM” value is -17.8%.
Consider `O=C(COc1ccc(NS(=O)(=O)c2ccc(F)cc2)cc1)N1CCOCC1`, for which the “hERG current change (%, negative = inhibition) at 10uM” value was found to be 6.42%.

The record behind these values is paper PMC4336329 (PLoS ONE, 2015).
